Results reported in the supplement of paper PMC3334620.
Whole data set: some 33,000 sequences, median “E-score (-0.5 to 0.5)” near -0.012, cut for the highest 2% near 0.27. The list shows a part of the results.

target: T1, Vhr1 (UniProt P40522); test: PBM E-score (8-mer binding enrichment) (E-score (-0.5 to 0.5)); higher = stronger / more preferred TF binding; most listed sequences are background and not binding sites; conditions: protein concentration: 200 nM; construct: GST-full length
T1 sequence: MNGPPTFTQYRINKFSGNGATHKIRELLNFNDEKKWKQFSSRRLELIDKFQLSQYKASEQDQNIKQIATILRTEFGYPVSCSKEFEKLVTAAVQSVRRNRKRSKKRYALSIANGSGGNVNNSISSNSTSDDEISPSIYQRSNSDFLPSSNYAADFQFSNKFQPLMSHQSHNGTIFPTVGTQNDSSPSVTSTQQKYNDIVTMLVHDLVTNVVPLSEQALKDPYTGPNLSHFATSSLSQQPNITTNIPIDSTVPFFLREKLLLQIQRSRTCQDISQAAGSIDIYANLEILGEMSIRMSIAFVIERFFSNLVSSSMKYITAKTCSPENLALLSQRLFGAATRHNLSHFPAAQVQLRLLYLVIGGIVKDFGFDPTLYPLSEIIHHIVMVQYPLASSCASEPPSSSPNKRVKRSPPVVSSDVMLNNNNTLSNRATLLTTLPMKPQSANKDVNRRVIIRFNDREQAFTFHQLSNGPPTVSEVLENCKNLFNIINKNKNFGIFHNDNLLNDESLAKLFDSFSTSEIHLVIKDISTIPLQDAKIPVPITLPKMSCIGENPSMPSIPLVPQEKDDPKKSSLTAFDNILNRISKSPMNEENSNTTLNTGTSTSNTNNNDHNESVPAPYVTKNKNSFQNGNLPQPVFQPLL
Summary of the method: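 The E-score, a modified Wilcoxon-Mann-Whitney statistic, was computed by the Universal PBM Analysis Suite for every ungapped eight-base word pooled with its reverse complement. Scans behind it were normalised with masliner after bound GST-tagged yeast transcription factors were detected with fluorescent anti-GST. The proteins, at about 100-200 nM, had been applied to universal all-10-mer Agilent arrays made double-stranded by primer extension.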

First: TATCGTCA
Second: ACGCGGCT
The “PBM E-score” value of the first is higher: 0.00818 for the first, -0.176 for the second.

First: AGCTACAT
Second: AGTACCTG
The “PBM E-score” value of the first is lower: -0.0935 for the first, 0.143 for the second.

Going from CCATTCTA to TCAAGCAA, the “PBM E-score” value falls from -0.0888 to -0.195.

Going from AGCCGACG to CTTCGGGA, the “PBM E-score” value falls from -0.0927 to -0.141.

Compared with CCGCGTGA, CGAGATCA is lower in “PBM E-score” value: 0.13 for the first, 0.108 for the second.

Compared with CCACTCCA, CATTGCCA is lower in “PBM E-score” value: 0.0742 for the first, -0.0948 for the second.

First: ACCGGATG
Second: AGGATGAT
The “PBM E-score” value of the first is lower: 0.0519 for the first, 0.309 for the second.

Going from CGACGCGA to GGCATCCC, the “PBM E-score” value falls from 0.0568 to -0.196.

Going from GGCTCAGA to CCGGGTCG, the “PBM E-score” value falls from 0.137 to 0.127.

First: CGGCAAGA
Second: ACGGTGCT
The “PBM E-score” value of the first is lower: -0.0673 for the first, -0.00084 for the second.

Going from GGCACTAA to CTTGTAGC, the “PBM E-score” value falls from 0.0104 to -0.0759.

Compared with ACGCGGAC, GCTGGTAC is higher in “PBM E-score” value: -0.12 for the first, -0.075 for the second.

First: CCACGCCA
Second: GTCGTAGA
The “PBM E-score” value of the first is higher: -0.0132 for the first, -0.047 for the second.

First: AGCCCCCT
Second: CATCCAGA
The “PBM E-score” value of the first is lower: -0.38 for the first, 0.00259 for the second.

Compared with CCACACAA, CGTGGTGA is lower in “PBM E-score” value: -0.038 for the first, -0.158 for the second.

Compared with ACTAGCAA, CGGCGCGA is higher in “PBM E-score” value: 0.0945 for the first, 0.258 for the second.

First: AGCCCACT
Second: ACCCGATA
The “PBM E-score” value of the first is lower: 0.0241 for the first, 0.13 for the second.

Compared with AGTAAGCA, CAACCTTC is lower in “PBM E-score” value: -0.149 for the first, -0.171 for the second.

Compared with GCTTTTCC, TCTCGCAA is higher in “PBM E-score” value: -0.198 for the first, 0.0933 for the second.

First: GAGCATCA
Second: TCTGATCA
The “PBM E-score” value of the first is lower: -0.123 for the first, -0.0595 for the second.

Going from GAGGGCTA to AGCTCCTA, the “PBM E-score” value falls from -0.228 to -0.257.

Compared with CTATGCGC, AGCCGTCC is higher in “PBM E-score” value: 0.0131 for the first, 0.0312 for the second.

Going from ACATCCAC to AAAAATAG, the “PBM E-score” value falls from -0.0572 to -0.179.

First: AATGGTAC
Second: GGTGCTGA
The “PBM E-score” value of the first is lower: -0.0665 for the first, 0.042 for the second.

Going from GAGTGTTA to ACTTTGAT, the “PBM E-score” value rises from 0.00822 to 0.0736.

Compared with AAAGTACA, ACTTAGTC is higher in “PBM E-score” value: 0.071 for the first, 0.106 for the second.

Going from TCTAGCAA to CGTCCTTC, the “PBM E-score” value falls from -0.06 to -0.111.

First: CGTATAGA
Second: AGAAAGGC
The “PBM E-score” value of the first is higher: -0.064 for the first, -0.214 for the second.

Going from GCATCTAA to CACGGAAC, the “PBM E-score” value rises from -0.189 to 0.0514.

First: ATTCCGAA
Second: CCCTATCG
The “PBM E-score” value of the first is higher: 0.0744 for the first, -0.184 for the second.

Compared with ATGGGAAC, GGAGAGAC is higher in “PBM E-score” value: 0.0101 for the first, 0.0479 for the second.

Going from AGCTTGTA to GCCCTACA, the “PBM E-score” value falls from -0.0135 to -0.0859.

Compared with ACTTAGAC, ATAAAGAT is higher in “PBM E-score” value: -0.127 for the first, -0.0599 for the second.

Going from ACTTAAAT to ACTGTAAG, the “PBM E-score” value rises from -0.221 to -0.0286.

Compared with TATAGTGA, TCGTAGCA is higher in “PBM E-score” value: -0.0332 for the first, 0.111 for the second.

First: GTGTTAAC
Second: CGCCCACC
The “PBM E-score” value of the first is lower: 0.0538 for the first, 0.0735 for the second.

Compared with CACGTTTC, ATCACTGG is higher in “PBM E-score” value: -0.139 for the first, 0.141 for the second.

First: ATGCTCAA
Second: ATCTTGCG
The “PBM E-score” value of the first is lower: -0.0744 for the first, 0.0213 for the second.

Compared with ACGCAGTA, GGATGTCA is higher in “PBM E-score” value: -0.139 for the first, 0.232 for the second.

Compared with CTCTGCTA, CCGTGAGA is higher in “PBM E-score” value: -0.301 for the first, -0.155 for the second.

Compared with CATCATAG, CCTACCAC is lower in “PBM E-score” value: 0.266 for the first, -0.163 for the second.

Going from ATAGCGGG to GGACACAA, the “PBM E-score” value rises from -0.00629 to 0.221.

First: CAGTCGCG
Second: CGGCTTAG
The “PBM E-score” value of the first is higher: 0.196 for the first, -0.111 for the second.

First: ACTCCCTA
Second: CCTAACAC
The “PBM E-score” value of the first is lower: 0.063 for the first, 0.164 for the second.

First: AGTACGCC
Second: ACGGTCTC
The “PBM E-score” value of the first is lower: -0.108 for the first, -0.103 for the second.

Going from ATTAGTCG to CACATCAG, the “PBM E-score” value falls from 0.279 to 0.1.

Going from GGGTAGTA to CCGGCTAA, the “PBM E-score” value rises from -0.0945 to 0.0635.

First: CTGGGACA
Second: AACGCACT
The “PBM E-score” value of the first is lower: -0.0675 for the first, -0.0503 for the second.

First: TAGCGCAA
Second: GCGTATTA
The “PBM E-score” value of the first is lower: -0.0984 for the first, -0.048 for the second.

First: GTAGCGCA
Second: AAACTTCT
The “PBM E-score” value of the first is higher: -0.115 for the first, -0.158 for the second.

First: GGCAAGCC
Second: AATTTGTG
The “PBM E-score” value of the first is lower: -0.135 for the first, 0.0608 for the second.

First: AAGGACAA
Second: ACGCTGTA
The “PBM E-score” value of the first is lower: 0.0325 for the first, 0.0901 for the second.

First: ACGTAGGA
Second: CTTTAGAA
The “PBM E-score” value of the first is higher: -0.0384 for the first, -0.238 for the second.

First: CTGCCGCA
Second: CTATAATC
The “PBM E-score” value of the first is lower: 0.00633 for the first, 0.0573 for the second.

Compared with GCCCAGGA, TAACTATA is higher in “PBM E-score” value: -0.0566 for the first, -0.0169 for the second.

First: GCGGCAGC
Second: GACTAGCA
The “PBM E-score” value of the first is lower: -0.118 for the first, 0.184 for the second.

Going from AATCGAAT to GCATTTAA, the “PBM E-score” value falls from -0.0147 to -0.218.

Going from CCATCGCG to GAAGTCCA, the “PBM E-score” value falls from 0.134 to -0.213.

Compared with AGAAGGCA, CCGAGCAC is higher in “PBM E-score” value: -0.173 for the first, 0.0108 for the second.

Going from AGCGCCGC to CACCCGAA, the “PBM E-score” value rises from -0.191 to 0.181.

Going from AATGCCGA to GTCGTCGA, the “PBM E-score” value falls from 0.0142 to -0.196.

First: GGCGAAAA
Second: AGCAGAGA
The “PBM E-score” value of the first is higher: 0.0247 for the first, -0.0463 for the second.

First: ACGAAATG
Second: CCGAGTGA
The “PBM E-score” value of the first is lower: 0.078 for the first, 0.19 for the second.

Compared with GATACTCA, GACTCGCC is higher in “PBM E-score” value: 0.265 for the first, 0.276 for the second.

Compared with ACTAGAGG, GGGAGCGA is higher in “PBM E-score” value: -0.0982 for the first, 0.0761 for the second.

Going from GATCTAAA to ATCACTCA, the “PBM E-score” value rises from -0.104 to 0.234.

First: CGCACACC
Second: ACGGCTTA
The “PBM E-score” value of the first is higher: 0.186 for the first, -0.00477 for the second.

First: AGACACGA
Second: ATCTACCG
The “PBM E-score” value of the first is lower: 0.0497 for the first, 0.0941 for the second.

First: TGACTGAA
Second: AACTAGAG
The “PBM E-score” value of the first is higher: 0.196 for the first, -0.00407 for the second.

First: GGGATGCA
Second: ACAATCTA
The “PBM E-score” value of the first is lower: -0.174 for the first, 0.0111 for the second.

First: CATCTGGG
Second: GCTTAGCC
The “PBM E-score” value of the first is lower: -0.183 for the first, 0.00512 for the second.

Compared with AGATTTAT, AACATAAA is lower in “PBM E-score” value: 0.0701 for the first, 0.00715 for the second.

Going from GGGGACGA to AATTACAA, the “PBM E-score” value rises from -0.0218 to 0.0114.

Compared with TTAGGCAA, CCATACGG is higher in “PBM E-score” value: -0.193 for the first, -0.0355 for the second.

Compared with ACAACACG, CGTAAAGA is lower in “PBM E-score” value: 0.0546 for the first, -0.289 for the second.

Going from CAGACCCA to CTGCTAGA, the “PBM E-score” value falls from 0.0519 to -0.122.

Going from GATTGCGA to CATATCAG, the “PBM E-score” value falls from 0.0903 to -0.0382.

Compared with CGGTTGAC, AGATTCTG is lower in “PBM E-score” value: -0.0106 for the first, -0.161 for the second.

Compared with CATACATC, GGGTACCC is lower in “PBM E-score” value: 0.146 for the first, -0.122 for the second.

Going from CAAAGCCA to AATACTGG, the “PBM E-score” value rises from 0.0186 to 0.145.

Going from CCCAGCAC to GCGTCCTA, the “PBM E-score” value rises from -0.0374 to -0.0317.

Going from CCCGGCCG to CAACTTCG, the “PBM E-score” value falls from 0.0208 to 0.0147.

Compared with CTTCCTGA, AGCGTCCA is lower in “PBM E-score” value: 0.038 for the first, -0.286 for the second.

Going from AATATTTG to CGCGGTGC, the “PBM E-score” value falls from 0.102 to 0.0465.

First: AGGGGAGG
Second: ATCCACAT
The “PBM E-score” value of the first is higher: 0.263 for the first, 0.0973 for the second.

First: AAACAGTG
Second: CAAGCTAA
The “PBM E-score” value of the first is higher: 0.114 for the first, -0.0807 for the second.
